Data published in PubChem BioAssay AID1508624 (National Center for Advancing Translational Sciences (NCATS), 2021).
The whole screen tested about 48,000 compounds, of which about 120 (0.25%) were called active. Inconclusive results (about 4%) are left out. The call rests on the fitted dose curve; in most records, active means well fitted activation curve with a large enough effect; inconclusive means small, poorly fitted or top-dose-only effect, or another doubt; inactive means no such curve, though single readings can be large or run the other way. This is one part of the list.

Assay: Primary qHTS for Identification of Small Molecule Activators of Huntingtin-Antisense Promoter Activity; further: nearly all actives have a fitted effect of over 55% in size
Settings: HEK293 HTT-AS promoter firefly luciferase reporter (activity 0% = vehicle and -100% = no light), 24 h; series mostly up to 57.5 µM; activity change, positive = activation: at the top concentration
Outline: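 HEK293 Fluc reporter, 2,500 cells/well, 24 h pre-culture; cpds up to 57.5 uM final, 24 h 37 degrees C; Dual-Glo, 10 min RT; normalized vehicle = 0%, zero RLU = -100%.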

SMILES	activity change, positive = activation
CN(C)CCNC(=O)C1CCN(Cc2cc3ccccc3n2Cc2ccccc2)CC1	inactive: -31%
C=CCNC1=C2C[C@@H](C)C[C@H](OC)[C@@H](O)[C@@H](C)C=C(C)[C@H](OC(N)=O)[C@@H](OC)C=CC=C(C)C(=O)NC(=CC1=O)C2=O	inactive: -54.2%
COc1cc(NC(=O)CCc2c(C)nn(-c3ccc4nnc(C)n4n3)c2C)cc(OC)c1OC	inactive: -11.2%
CCOc1ccc(N2CC(NC(=O)c3cccs3)CC2=O)cc1 (configuration not stated)	inactive: -5.03%
CCCN(CCC)CCCNC(=O)c1cc2c(-c3ccc(OC)c(OC)c3)nn(C)c2s1	inactive: -2.06%
Cc1ccc(S(=O)(=O)n2nc(-c3ccccc3)nc2NCc2ccc(Cl)cc2)cc1	inactive: -19.4%
O=C1CC(c2nc(-c3ccc(Cl)cc3)no2)CN1c1ccc2c(c1)OCCO2 (configuration not stated)	inactive: -16.8%
O=C(CSc1nc2c([nH]c3ccccc32)c(=O)n1-c1ccccc1)N1CCc2ccccc21	inactive: -15.9%
Cc1csc(NC(=O)c2sc3nc4c(c(C(F)(F)F)c3c2N)CCC4)n1	inactive: -89.1%
CC(C)(C)CC(=O)NCC(c1ccc2c(c1)OCO2)N1CCN(c2ccccc2)CC1 (configuration not stated)	inactive: -15.9%
O=C(NCc1cccc(Br)c1)c1cnn(-c2ccc(F)cc2)c1-n1cccc1	inactive: -31.1%
CC(=O)c1ccc(NC(=O)c2cc(-c3ccc(C)s3)nc3ccccc23)cc1	inactive: -2.14%
CCC(C)NC(=O)Cn1c(=O)n(CCCCCC(=O)NCc2ccccc2Cl)c(=O)c2sccc21 (configuration not stated)	inactive: -22.7%
O=C(CSc1nccn1-c1ccc(Cl)cc1)Nc1ccc(Cl)c(Cl)c1	inactive: -15.6%
COc1cc(NC(=O)N2c3ccccc3Sc3ccccc32)cc(OC)c1	inactive: -28.6%
CCOC(=O)N1CCc2c(sc3c2c(=O)n(CCc2ccccc2)c(=O)n3CC(=O)Nc2ccc(C)cc2)C1	inactive: -1.84%
CCOC(=O)c1ccc(NC(=O)CSc2ccc3ccccc3n2)cc1	inactive: -3.49%
COc1ccccc1C(=O)NCC(c1cccnc1)N1CCc2ccccc2C1 (configuration not stated)	inactive: -16.5%
CN1CCc2c(sc(NC(=O)CSc3ccccc3)c2-c2nc3ccccc3s2)C1	inactive: -9.01%
CCCOC(=O)c1c(NC(=O)C(C)Sc2nc(-c3ccccc3)cc(C(F)(F)F)n2)sc(C(=O)N(C)C)c1C (configuration not stated)	inactive: -36.8%
Cc1cccc(N2CCN(C(=O)CN3C(=O)CSc4c3c(C)nn4-c3ccccc3)CC2)c1C	inactive: -4.42%
O=C(Nc1ccc(Oc2ccccc2)cc1)C1CCN(S(=O)(=O)c2ccc(Cl)cc2)CC1	inactive: 2.68%
CCOc1ccc(CCNC(=O)c2ccc3c(c2)c(C)c(C)n3Cc2ccccc2)cc1OCC	inactive: -32.4%
COc1ccccc1NC(=O)CCCc1nnc2n(C)c(=O)c3sccc3n12	inactive: 1.97%

SMILES	activity change, positive = activation
CCOC(=O)c1cc(S(=O)(=O)NCc2ccc(C)cc2)[nH]n1	inactive: -11.7%
COc1ccc(CCN2C(=O)c3[nH]nc(-c4ccccc4O)c3C2c2ccc(OC)cc2)cc1 (configuration not stated)	inactive: -35.3%
O=S(=O)(c1ccc(Cl)cc1)c1nc(-c2ccco2)oc1SCc1ccc(F)cc1	inactive: -22.5%
C[C@]1(Cn2ccnn2)[C@H](C(=O)O)N2C(=O)C[C@H]2S1(=O)=O	inactive: -3.63%
CSc1ccc(CCNC(=O)CCn2c(=O)c3cccn3c3ccc(F)cc32)cc1	inactive: -11.5%
CCOC(=O)c1c(NC(=O)c2cc3ccccc3c(=O)o2)sc2c1CCC(C)C2 (configuration not stated)	inactive: 0.162%
COc1ccc(-n2c(=O)c3ccccc3n(CC(=O)Nc3ccccc3OC)c2=O)cc1	inactive: -14.3%
COc1cc(OC)cc(C(=O)Nc2cc3c(cc2N2CCCC2)n(C)c(=O)c(=O)n3C)c1	inactive: -5.71%
Cc1ccc2c(CC(=O)Nc3c(C(=O)c4ccc(C)c(F)c4)oc4ccccc34)coc2c1	inactive: 9.17%
CCOc1ccc(NC(=O)c2cnc3ccccn3c2=O)cc1	inactive: 7.17%
CC(CN(C)C)C(C)(O)Cc1ccc(Cl)cc1 (configuration not stated)	inactive: -7.56%
CCN(CC)CCCCNc1ncc2cc(-c3cc(OC)cc(OC)c3)c(NC(=O)NC(C)(C)C)nc2n1	inactive: -10.2%
CC(=O)c1ccc(NC(=O)c2cnn(-c3cccc(F)c3)c2-n2cccc2)cc1	inactive: -19.5%
COc1ccc(S(=O)(=O)c2c(O)c3ccc(C(=O)NCc4ccc(F)cc4)cc3[nH]c2=O)cc1	inactive: -6.2%
COc1ccc(NC(=O)CSc2nc(-c3ccc(F)cc3)[nH]c2-c2ccc(C)cc2)cc1OC	inactive: -22.1%
Cc1ccc(CNC(=O)c2cc(C)nc3c2c(C)nn3-c2ccc(C)cc2)cc1	inactive: -11%
Cc1ccc2c(c1)-c1ncc(C(=O)c3ccccc3O)cc1CO2	inactive: 17.9%
Cc1cc(C)cc(NC(=O)CSc2nc(-c3ccccc3)c3cc(F)ccc3n2)c1	inactive: -4.77%
Cc1ccc(C(=O)NC2=NC(c3ccc(C)cc3)CC(=O)N2)cc1 (configuration not stated)	inactive: -0.867%
CC(=O)OCC(=O)[C@@]1(OC(C)=O)[C@@H](C)C[C@H]2[C@@H]3C[C@H](F)C4=CC(=O)C=C[C@]4(C)[C@@]3(F)[C@@H](O)C[C@@]21C	inactive: -18.5%
CC(=O)c1ccc(NC(=O)c2cc3sccc3n2Cc2ccc(F)cc2)cc1	inactive: -21.4%
CCCCCOC(=O)CSc1ncnc2sc3c(c12)CCC(C)C3 (configuration not stated)	inactive: 2.38%
Cc1ccc2nc3sc(C(=O)NCCCN(C)c4ccccc4)cc3cc2c1	inactive: 16.4%
